Sequences with one replicate were seen in a single cluster, so their values are uncertain.
Test system: ATP
Assay: switch fluorescence ratio, 500 uM ATP over buffer (Cy3 cluster intensity, sum of 5 cycles each) (fold (ratio)); higher = stronger signal-on switching upon ATP binding; sequences stand for … in TCGTCGGCAGCGTCAGATGTGTATAAGAGACAGTTTTTTTTTTTTTTTTTTTTTTTTT…TC
Conditions: aptamer strand: ATP DNA aptamer (quencher-CACCTGGGGGAGTATTGCGGAGGAAGG + anchor), 100 nM annealed; ATP concentration: 500 uM; one replicate
Summary of the method: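 Per cluster, summed Cy3 intensity from the target cycles was divided by that from the buffer cycles to give the fluorescence ratio, then averaged per switch-domain sequence. Clusters outside 100-1000 RFU were excluded. The Cy3-labelled switching-strand clusters, on a modified Illumina MiSeq flow-cell, were annealed to 100 nM quencher-labelled ATP aptamer and imaged in selection buffer, then after 15 min with 500 uM ATP at 22 °C, for five cycles with NaOH stripping and re-annealing between them.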
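Also: ATP exposure 15 min at 22 °C before imaging.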

| Sequence | switch fluorescence ratio |
| --- | --- |
| CGCCTTGTAA | 1.03 |
| CTCTGGTGAG | 0.969 |
| ATCATCATTT | 0.991 |
| GAGTCCCATC | 1.03 |
| AGGGGGCACC | 0.925 |
| TGGAAACATC | 1.04 |
| AGATTGGTGG | 0.975 |
| GGGCGGACGG | 0.993 |
| GTTCGTTTGA | 0.941 |
| CCGTGATTTT | 1.05 |
| CAATTGTTCG | 1.03 |
| GCACGATTCG | 1.04 |
| CTATTGGAAA | 1 |
| GGCACTCAGG | 1.06 |
| ATTAAGTGGT | 0.952 |
| ACATAATCCA | 1.04 |
| GATGCATGGA | 1.05 |
| ACAGGAAATT | 1.01 |
| AGCTGTCTGT | 1 |
| GACGATCCGG | 0.988 |
| TCGACCCGGT | 1.02 |
| GGTAAAATGG | 1.03 |
| TTTATGAACG | 0.974 |

| Sequence | switch fluorescence ratio |
| --- | --- |
| AGCGGGGCTC | 1.05 |
| TTAGGCACCC | 1.07 |
| GCGTACTGCT | 0.973 |
| TGGCCTATGC | 0.999 |
| CTAGCATGAG | 1.05 |
| AGGCGGACGG | 1.02 |
| TGGGATCACT | 0.963 |
| CGGGTCGCAA | 1.32 |
| ACAGCGACCG | 1.11 |
| CCACGAGAGA | 1.04 |
| CGGATTTCTG | 0.965 |
| GGGGCACCAA | 1.02 |
| TTGCAGGCTG | 1.02 |
| GTAATGGCAG | 1.03 |
| GGAAAGCAGC | 1.04 |
| TTGGGTGTAC | 1.04 |
| TTAGGAGGA | 0.955 |
| GCCGGCGTTC | 1.01 |
| GTCCCGACAA | 1 |
| GGTCTTAGCG | 0.969 |
| AAGGGTA | 0.966 |
| TTTTGAAAAT | 0.983 |
| GATCCTTAGT | 0.999 |

| Sequence | switch fluorescence ratio |
| --- | --- |
| ACATCCTCTC | 1.04 |
| ACTGATAGGT | 0.998 |
| ATGAACGGCG | 1.06 |
| ACTCAAGAAG | 1.13 |
| GAGAAACCAT | 0.944 |
| AACGCGTATT | 1.05 |
| GATTGTGCTC | 1.01 |
| TATAGTAAGT | 1.01 |
| TATAGCCGTG | 1.17 |
| CTCTAATGGC | 1.09 |
| AGGGCTGACT | 1.01 |
| TCCCGTGTAG | 1.04 |
| CGCACTCAAA | 1.13 |
| TGACCCGGGG | 1.01 |
| TTTTAAACGG | 0.971 |
| GGCTGAGTG | 0.985 |
| CCATAATCTG | 1.01 |
| AAGCTTCGTG | 1.06 |
| TGTTACTATT | 1.04 |
| TGCTATTTGG | 0.98 |
| TCGGTTGCTT | 0.938 |
| GATATATTTG | 1.01 |
| CATCGTAGGT | 1.02 |

| Sequence | switch fluorescence ratio |
| --- | --- |
| CAAGGATGGG | 0.97 |
| GGTTCTGTGC | 0.998 |
| AATTCGGCTC | 0.983 |
| ATTATTCTCG | 0.978 |
| GCTAGTCCTG | 1.02 |
| GTACGGCG | 0.968 |
| CCGGGGCGTG | 0.976 |
| ATTTGAGTTC | 1 |
| TAGAAGTAAG | 1 |
| TTGCCATCTT | 0.999 |
| GGGGCGGTTG | 0.94 |
| TCCAATAGTC | 1.32 |
| ATTGGCTGTA | 0.99 |
| CATACGGCTT | 1.03 |
| ATGTTCTTAG | 1.03 |
| GTTAGTTGC | 0.99 |
| TACCGGGTCG | 1.02 |
| ACTATCCTTC | 1.11 |
| TGACAGTTTT | 1.01 |
| GGACTGACCG | 0.962 |
| GAGGTGGAGA | 1.04 |
| GGTAGAACGG | 0.972 |
| CGTATGTTTG | 1.09 |

| Sequence | switch fluorescence ratio |
| --- | --- |
| GCCGTTGACG | 0.992 |
| TAGATGGGTA | 0.988 |
| AAAATAAGTA | 0.985 |
| CTCAAACCCT | 1.08 |
| GAAGCGGCTG | 1.08 |
| CAACTTATAA | 1.06 |
| TTGACCACCC | 1.06 |
| CTGTGCATGT | 1.1 |
| TGGAGCTCAA | 1.06 |
| ATGCGCGGGG | 1.01 |
| CGCGGCCTG | 0.972 |
| GTTCATCTGT | 1.01 |
| AATAAGAT | 1.04 |
| TTAGTAGAAG | 1.04 |
| TGAGAGCTAA | 1.02 |
| AGTCGGCTAC | 2.21 |
| AACTTGACAG | 1.05 |
| ACTCTTTTT | 1.01 |
| GGCCCATGGA | 1.01 |
| ATGTTCAGCT | 1.03 |
| TTTGTGGCCG | 1.12 |
| CTTAAGTAGC | 1.07 |
| ATTTCTCAGA | 1.02 |

| Sequence | switch fluorescence ratio |
| --- | --- |
| AGGTGCGTAG | 0.979 |
| CATATATTA | 1.01 |
| CCATCACTTC | 1.05 |
| GGAATTTGGT | 1 |
| TAAAGTTGTC | 1.01 |
| CCTTATTAGA | 0.984 |
| GGTCAGGTAC | 1.05 |
| TGGAATACTA | 1.23 |
| GGGTTTGCTC | 1.02 |
| AACGATAGCC | 1.07 |
| GCTCATCTTA | 1.03 |
| ATGAGAACAT | 1 |
| AGTGTGAACC | 1.03 |
| TCAGATGTGC | 1.03 |
| ATAACAGTCC | 1.06 |
| TAGATTAGTA | 0.99 |
| CATGGTACTG | 1.1 |
| TAGTTTAGGG | 0.982 |
| CCCACTTCTT | 1.03 |
| TTGTGAACAT | 1.02 |
| CAGTACGAAA | 1.04 |
| AGGAGGCCGT | 1.01 |
| CCTCTTATG | 1.07 |

| Sequence | switch fluorescence ratio |
| --- | --- |
| TGAGGACTAG | 1.01 |
| ATACCCGGGT | 1.02 |
| TCGCCACTTT | 1.03 |
| ACCAAGGTTG | 1.06 |
| CGCTCGCCCC | 1.98 |
| GTTCTTTCAC | 1.02 |
| CTCCATGTTC | 1.25 |
| ATGTCTTCTC | 0.998 |
| GCTAAAAGG | 1.02 |
| AAATGGGCGA | 1.01 |
| CGTGAAATAC | 4.72 |
| CCCAGCAGGA | 1.24 |
| CGACGTATT | 1.14 |
| TACAACGGTT | 0.992 |
| CGAGTCAATT | 1.51 |
| TGATAGAGCA | 1.02 |
| TCGAATTTAT | 1.01 |
| CGGTGGAAGG | 1.03 |
| AAACTAGCCG | 0.885 |

— the supplement of paper PMC10126150
